In the supplement of paper PMC8728848:
Some of the results follow.

What was measured:
Assay in all cases: glycan array binding signal (z-score within array); higher = stronger binding
Conditions in all cases: glycan notation: IUPAC condensed, linker removed
[1] = biological target: Neu5Ac(a2-8)Neu5Ac
Outline: (§1)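 Glycan array data were curated from 3228 arrays in the Consortium for Functional Glycomics database and kept only where the protein sequence was available. Glycan names were converted to IUPAC-condensed notation, and columns mapping to the same glycan were averaged. The binding signal is a within-array Z-score, averaged across arrays of the same protein sequence at different concentrations or buffers and across linkers. Negative Z-scores can be read as non-binding.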

[2] = biological target: Neu5Ac(a2-8)Neu5Ac(a2-3)Gal(b1-3)GalNAc(b1-4)[Neu5Ac(a2-3)]Gal(b1-4)Glc
Outline: as §1

[3] = biological target: Neu5Ac(a2-8)Neu5Ac(a2-3)Gal(b1-3)GalNAc(b1-4)[Neu5Ac(a2-8)Neu5Ac(a2-3)]Gal(b1-4)Glc
Outline: as §1

[4] = biological target: Neu5Ac(a2-8)Neu5Ac(a2-3)Gal(b1-4)Glc
Outline: as §1

[5] = biological target: Neu5Ac(a2-8)Neu5Ac(a2-3)Gal(b1-4)GlcNAc
Outline: as §1

[6] = biological target: Neu5Ac(a2-8)Neu5Ac(a2-3)[Gal(b1-3)GalNAc(b1-4)]Gal(b1-4)Glc
Outline: as §1

[7] = biological target: Neu5Ac(a2-8)Neu5Ac(a2-3)[GalNAc(b1-4)]Gal(b1-4)Glc
Outline: as §1

[8] = biological target: Neu5Ac(a2-8)Neu5Ac(a2-8)Neu5Ac
Outline: as §1

[9] = biological target: Neu5Ac(a2-8)Neu5Ac(a2-8)Neu5Ac(a2-3)Gal(b1-4)Glc
Outline: as §1

[10] = biological target: Neu5Ac(a2-8)Neu5Ac(a2-8)Neu5Ac(a2-3)[Gal(b1-3)GalNAc(b1-4)]Gal(b1-4)Glc
Outline: as §1

[11] = biological target: Neu5Ac(a2-8)Neu5Ac(a2-8)Neu5Ac(a2-3)[GalNAc(b1-4)]Gal(b1-4)Glc
Outline: as §1

[12] = biological target: Neu5Ac(a2-8)Neu5Ac(a2-8)Neu5Ac(a2-8)Neu5Ac(a2-3)[GalNAc(b1-4)]Gal(b1-4)Glc
Outline: as §1

[13] = biological target: Neu5Ac(a2-8)Neu5Gc(a2-3)Gal(b1-4)GlcNAc
Outline: as §1

[14] = biological target: Neu5Ac(b2-6)Gal(b1-4)GlcNAc
Outline: as §1

[15] = biological target: Neu5Ac(b2-6)GalNAc
Outline: as §1

[16] = biological target: Neu5Ac9Ac(a2-3)Gal(b1-3)GlcNAc
Outline: as §1

[17] = biological target: Neu5Ac9Ac(a2-3)Gal(b1-4)GlcNAc
Outline: as §1

[18] = biological target: Neu5Ac9Ac(a2-6)Gal(b1-4)GlcNAc
Outline: as §1

[19] = biological target: Neu5Gc(a2-3)Gal(b1-3)GlcNAc
Outline: as §1

[20] = biological target: Neu5Gc(a2-3)Gal(b1-3)[Fuc(a1-4)]GlcNAc
Outline: as §1

[21] = biological target: Neu5Gc(a2-3)Gal(b1-4)Glc
Outline: as §1

[22] = biological target: Neu5Gc(a2-3)Gal(b1-4)GlcNAc
Outline: as §1

[23] = biological target: Neu5Gc(a2-3)Gal(b1-4)GlcNAc(b1-3)Gal(b1-4)GlcNAc(b1-2)Man(a1-3)[Neu5Gc(a2-3)Gal(b1-4)GlcNAc(b1-3)Gal(b1-4)GlcNAc(b1-2)Man(a1-6)]Man(b1-4)GlcNAc(b1-4)GlcNAc
Outline: as §1

[24] = biological target: Neu5Gc(a2-3)Gal(b1-4)[Fuc(a1-3)]GlcNAc
Outline: as §1

[25] = biological target: Neu5Gc(a2-6)Gal(b1-4)GlcNAc
Outline: as §1

[26] = biological target: Neu5Gc(a2-6)GalNAc
Outline: as §1

[27] = biological target: Neu5Gc(a2-8)Neu5Ac(a2-3)Gal(b1-4)GlcNAc
Outline: as §1

[28] = biological target: Neu5Gc(a2-8)Neu5Gc(a2-3)Gal(b1-4)GlcNAc
Outline: as §1

[29] = biological target: Neu5Gc(a2-8)Neu5Gc(a2-3)Gal(b1-4)GlcNAc(b1-3)Gal(b1-4)GlcNAc
Outline: as §1

[30] = biological target: Neu5Gc(a2-8)Neu5Gc(a2-6)Gal(b1-4)GlcNAc
Outline: as §1

[31] = biological target: Neu5Gc(b2-6)Gal(b1-4)GlcNAc
Outline: as §1

B1: MPA (Maclura pomifera), P18674 (protein)
chain: GVTFDDGAYTGIREINFEYNSETAIGGLRVTYDLNGMPFVAEDHKSFITGFKPVKISLEFPSEYIVEVSGYVGKVEGYTVIRSLTFKTNKQTYGPYGVTNGTPFSLPIENGLIVGFKGSIGYWLDYFSIYLSL
B1 was tested, and the “glycan array binding signal (z-score)” value [1] was -0.149, the “glycan array binding signal (z-score)” value [2] was -0.174 and the “glycan array binding signal (z-score)” value [3] was -0.116. The “glycan array binding signal (z-score)” value [4] was -0.25, the “glycan array binding signal (z-score)” value [5] was -0.162 and the “glycan array binding signal (z-score)” value [6] was -0.316. For the same binder, the “glycan array binding signal (z-score)” value [7] was -0.273, the “glycan array binding signal (z-score)” value [8] was -0.172 and the “glycan array binding signal (z-score)” value [9] was -0.151. For the same binder, the “glycan array binding signal (z-score)” value [10] was -0.044, the “glycan array binding signal (z-score)” value [11] was -0.313 and the “glycan array binding signal (z-score)” value [12] was -0.179. For the same binder, the “glycan array binding signal (z-score)” value [13] was -0.217, the “glycan array binding signal (z-score)” value [14] was -0.246 and the “glycan array binding signal (z-score)” value [15] was -0.253. The “glycan array binding signal (z-score)” value [16] was -0.231, the “glycan array binding signal (z-score)” value [17] was -0.048 and the “glycan array binding signal (z-score)” value [18] was -0.237. The “glycan array binding signal (z-score)” value [19] was -0.181, the “glycan array binding signal (z-score)” value [20] was -0.239 and the “glycan array binding signal (z-score)” value [21] was -0.156. For the same binder, the “glycan array binding signal (z-score)” value [22] was -0.183, the “glycan array binding signal (z-score)” value [23] was -0.196 and the “glycan array binding signal (z-score)” value [24] was -0.208. For the same binder, the “glycan array binding signal (z-score)” value [25] was -0.125, the “glycan array binding signal (z-score)” value [26] was -0.246 and the “glycan array binding signal (z-score)” value [27] was -0.295. For the same binder, the “glycan array binding signal (z-score)” value [28] was -0.288, the “glycan array binding signal (z-score)” value [29] was -0.219 and the “glycan array binding signal (z-score)” value [30] was -0.261. For the same binder, the “glycan array binding signal (z-score)” value [31] was -0.109.
